Where two headings read alike, the source gives them in different places. Each block holds one binder with its values, some of them ahead of it.
What was measured:
Assay in all cases: cell-based or functional assay
[1] = biological target: T1, IL2Rβ/γ receptor (low/medium affinity IL2 receptor) on YT/STAT5-Luc cells with IL2Rα knocked out (human, UniProt P14784 27-551; P31785 23-369)
T1 sequence (looked up) 1: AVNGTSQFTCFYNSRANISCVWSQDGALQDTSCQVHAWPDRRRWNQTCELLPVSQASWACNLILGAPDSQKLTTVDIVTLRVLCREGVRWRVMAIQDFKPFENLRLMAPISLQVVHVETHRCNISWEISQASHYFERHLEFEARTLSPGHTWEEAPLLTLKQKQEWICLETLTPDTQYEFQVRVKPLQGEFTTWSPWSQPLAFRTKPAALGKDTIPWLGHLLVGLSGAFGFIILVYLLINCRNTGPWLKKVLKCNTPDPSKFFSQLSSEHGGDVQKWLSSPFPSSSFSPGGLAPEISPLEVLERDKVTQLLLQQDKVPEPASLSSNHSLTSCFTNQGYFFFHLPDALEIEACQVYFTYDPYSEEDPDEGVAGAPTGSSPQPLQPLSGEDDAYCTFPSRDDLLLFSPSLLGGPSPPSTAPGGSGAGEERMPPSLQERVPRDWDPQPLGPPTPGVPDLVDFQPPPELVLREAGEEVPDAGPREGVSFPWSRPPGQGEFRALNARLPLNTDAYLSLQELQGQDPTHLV
T1 sequence (looked up) 2: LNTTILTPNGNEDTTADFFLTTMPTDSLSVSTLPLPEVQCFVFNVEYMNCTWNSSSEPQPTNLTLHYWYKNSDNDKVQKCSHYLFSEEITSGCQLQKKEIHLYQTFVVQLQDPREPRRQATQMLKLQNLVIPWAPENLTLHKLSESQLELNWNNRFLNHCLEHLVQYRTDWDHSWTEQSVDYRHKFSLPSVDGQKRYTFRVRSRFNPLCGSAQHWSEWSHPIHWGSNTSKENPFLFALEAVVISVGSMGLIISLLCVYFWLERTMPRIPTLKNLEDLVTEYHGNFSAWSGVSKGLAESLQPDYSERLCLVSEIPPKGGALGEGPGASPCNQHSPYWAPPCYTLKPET

[2] = biological target: T2, IL2Rα/β/γ receptor (high affinity IL2 receptor) on YT/STAT5-Luc cells expressing endogenous or over-expressed … (human, UniProt P01589 22-272; P14784 27-551; P31785 23-369)
T2 sequence (looked up) 1: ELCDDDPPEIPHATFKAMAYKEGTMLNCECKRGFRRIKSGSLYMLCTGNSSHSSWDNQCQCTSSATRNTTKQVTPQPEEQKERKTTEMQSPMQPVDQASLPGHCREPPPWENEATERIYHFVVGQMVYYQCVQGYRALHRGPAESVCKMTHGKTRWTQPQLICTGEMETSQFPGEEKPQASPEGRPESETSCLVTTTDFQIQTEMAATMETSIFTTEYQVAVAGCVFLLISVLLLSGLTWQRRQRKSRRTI
T2 sequence (looked up) 2: T1 sequence (looked up) 1
T2 sequence (looked up) 3: T1 sequence (looked up) 2

[3] = biological target: T1, IL2Rβ/γ receptor (low/medium affinity …); remark: listed apart in the source
[4] = biological target: T2, IL2Rα/β/γ receptor (high affinity IL2 …); remark: listed apart in the source

EC50 (M), STAT5-Luc IL2 reporter assay, CD25 KO/PD1 OE [1]: 2.05e-09 M
Max Fold induction, STAT5-Luc IL2 reporter assay, CD25 KO/PD1 OE [1]: 4.42 fold
EC50 (M), STAT5-Luc IL2 reporter assay, CD25 OE/PD1 OE [2]: 1.75e-10 M
Max Fold induction, STAT5-Luc IL2 reporter assay, CD25 OE/PD1 OE [2]: 7.77 fold
B1: aPD1(9048)-IL2-IL2Ra (other)
VH: QVQLVQSGAEVKRPGSSVKVSCKVSGVTFRNFAIIWVRQAPGQGLEWMGGIIPFFSAANYAQSFQGRVTITPDESTSTAFMELASLRSEDTAVYYCAREGERGHTYGFDYWGQGTLVTVSS
VL: [about 100 residues skipped]

EC50 (M), STAT5-Luc IL2 reporter assay, CD25 KO/PD1 OE [3]: 5.32e-11 M
Max Fold induction, STAT5-Luc IL2 reporter assay, CD25 KO/PD1 OE [3]: 4.24 fold
EC50 (M), STAT5-Luc IL2 reporter assay, CD25 OE/PD1 OE [4]: 4.64e-11 M
Max Fold induction, STAT5-Luc IL2 reporter assay, CD25 OE/PD1 OE [4]: 4.62 fold
B2: REGN13233 (anti-PD-1 antibody with VH/VL of SEQ ID NOs: 41/10 linked to IL2 variant IL2(3 m)) (other)
VH: B1 VH
VL: [about 100 residues skipped]

Source: patent US20220402989A1 (Regeneron, published 2022)
